# According to the supplement of paper PMC3334620:
# Whole data set: some 33,000 sequences, median “E-score (-0.5 to 0.5)” near -0.032, cut for the highest 2% near 0.36. This is one part of the list.
# Target: T1, Sko1 (UniProt Q02100)
# T1 sequence: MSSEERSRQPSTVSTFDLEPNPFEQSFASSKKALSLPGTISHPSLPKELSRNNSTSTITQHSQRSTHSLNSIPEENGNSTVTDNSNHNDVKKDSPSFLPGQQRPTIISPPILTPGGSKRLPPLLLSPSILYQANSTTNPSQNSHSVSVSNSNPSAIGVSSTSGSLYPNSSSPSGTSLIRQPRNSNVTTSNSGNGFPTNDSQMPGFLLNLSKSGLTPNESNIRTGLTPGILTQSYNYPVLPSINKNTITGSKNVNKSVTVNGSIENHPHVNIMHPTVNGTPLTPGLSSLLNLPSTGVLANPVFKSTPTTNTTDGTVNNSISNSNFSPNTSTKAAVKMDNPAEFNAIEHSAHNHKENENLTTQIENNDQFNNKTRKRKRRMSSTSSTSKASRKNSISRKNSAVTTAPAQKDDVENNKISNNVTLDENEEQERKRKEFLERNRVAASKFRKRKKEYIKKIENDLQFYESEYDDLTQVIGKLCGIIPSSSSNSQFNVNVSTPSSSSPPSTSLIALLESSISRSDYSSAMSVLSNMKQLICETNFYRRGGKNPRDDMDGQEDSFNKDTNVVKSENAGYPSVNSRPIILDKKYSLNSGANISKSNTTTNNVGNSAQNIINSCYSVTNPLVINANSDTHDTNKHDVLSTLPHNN
# Assay: PBM E-score (8-mer binding enrichment) (E-score (-0.5 to 0.5)); higher = stronger / more preferred TF binding; most listed sequences are background and not binding sites
# Details: protein concentration: 200 nM; construct: GST-full length
# In short: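 PURExpress in vitro transcription/translation supplied GST-tagged yeast transcription factors, either full-length or DNA-binding domain. Applied at about 100-200 nM to universal all-10-mer Agilent arrays double-stranded by primer extension, the bound protein was detected with fluorescent anti-GST. E-scores, modified Wilcoxon-Mann-Whitney statistics, were given by the Universal PBM Analysis Suite to ungapped eight-base words pooled with their reverse complements after masliner normalisation.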
row,Sequence,PBM E-score
1,CTAGGGGA,-0.363
2,CTGGTGTC,-0.167
3,CTCGACAG,-0.233
4,CACAATCC,-0.0275
5,AAGGAGCA,-0.195
6,ACTCACGA,0.0722
7,ATTTTTAG,-0.0858
8,CGGAAAGA,0.0378
9,GAGCTGCC,-0.271
10,CCAAACTA,-0.0987
11,AACGAACT,0.0506
12,TCGTCGCA,0.0193
13,GACACTGC,-0.0761
14,CCATAACC,-0.235
15,ATCGGTTG,-0.0726
16,ATGAGGCG,-0.136
17,ACGATAGT,0.295
18,CTGGGGGC,-0.19
19,AGCAATGA,0.0923
20,GGAGTTCA,0.0339
21,TGATCACA,0.0799
22,AGCAACGG,-0.0513
23,CGAATTCA,0.0564
24,CCTACGTA,0.477
25,AAATGGCG,0.171

row,Sequence,PBM E-score
1,CTGGATCA,-0.165
2,CGGCAATA,-0.0262
3,TAGAACTA,0.073
4,AGCCAGGC,-0.0211
5,CAGTTCCG,-0.161
6,AAATTTGG,0.0593
7,ATGAGTCC,0.0501
8,ATAAGCGC,-0.0312
9,AGAGCCAT,-0.106
10,GCCAGTCC,-0.34
11,AGACCCCG,-0.247
12,CTGCACTC,-0.16
13,GACAAAGC,-0.138
14,AATGAGGG,-0.15
15,CTTGCACA,0.0986
16,CCCACGTC,0.402
17,CGCGGCAG,-0.218
18,ACTGTTTC,0.0897
19,AGCCCGAC,-0.173
20,ACCTATCT,-0.0547
21,GATCGAGC,0.00325
22,GACCCCTA,-0.179
23,TATCGATA,0.0744
24,ACCTGGAT,-0.245
25,AGCCTAAG,-0.199

row,Sequence,PBM E-score
1,ACGCGTAT,0.389
2,GGAGTAGA,-0.0416
3,GTTGTCTA,0.00931
4,ATCGACAG,-0.0578
5,CACACAGA,0.0535
6,AACCTATA,0.0955
7,AGCTGGTC,-0.145
8,CGTCTAAG,0.0318
9,CCAAGACG,0.169
10,ACTGTCCA,-0.0614
11,CTTGTCGA,-0.142
12,AGTGGTCA,-0.131
13,ATGAGGTC,0.161
14,CAAACGAA,0.176
15,CCACCCGG,-0.369
16,AACAAACT,0.144
17,ACTCAAAG,-0.0822
18,CCTCGACC,-0.267
19,CTCAGCGA,-0.143
20,AGCAAGCC,-0.119
21,CCGGATGA,-0.0444
22,AAGCGTGA,0.105
23,ACATGCAG,0.00336
24,CTACCGAG,-0.183
25,CTTTAATA,0.207

row,Sequence,PBM E-score
1,AGACAAAC,0.0999
2,CGTCGAAC,0.0482
3,CTAGTGGC,-0.184
4,AATAGGCC,-0.182
5,AACAGGTA,0.172
6,CGGTTTAC,-0.00808
7,TTTAGAAA,0.182
8,CGATCTCC,-0.0976
9,AGTCCTGA,-0.0273
10,GCTCTATA,-0.161
11,AATGGACT,-0.0952
12,CTGACTGA,-0.12
13,AAAGTGGG,0.0317
14,AATTATAT,0.201
15,CGCGCGAG,-0.139
16,AGAACAAA,0.23
17,CAGCTAGC,-0.124
18,CACGAGAG,-0.235
19,AATGGGAT,-0.106
20,TCAGCTAA,-0.0261
21,CTAATCTC,0.079
22,GACCTGAA,-0.31
23,CGCATGTC,0.268
24,GATACATA,0.149
25,CGGAACCG,-0.239

row,Sequence,PBM E-score
1,CCTTCCCC,-0.243
2,CGTAACCA,0.389
3,ACACCAGA,0.0476
4,AAACGTTA,0.3
5,CCAAGGGC,-0.273
6,AAAATCCG,-0.0369
7,ATACTATA,0.0423
8,AAAATCGA,0.103
9,GCGTCTGA,0.00529
10,CTGAGGCA,-0.167
11,CGTAAAAG,0.288
12,CGATGCGC,0.152
13,AACGATAT,0.261
14,CAACTCAA,0.067
15,TAGTCAAA,0.191
16,CATTGAGC,-0.0894
17,CGATCTTA,-0.00227
18,CGAAGAGC,-0.168
19,ACGGTCCT,-0.245
20,TTACGGAA,0.246
21,CCGCGTAA,0.318
22,ATGCGCTA,0.0485
23,CTTAAGAC,-0.0586
24,AGTGCCGG,-0.292
25,AACCGTGT,-0.0788

row,Sequence,PBM E-score
1,ACGAGACG,0.126
2,AAACCCAT,0.159
3,GTTTGCCA,0.0947
4,ATGATGGG,-0.167
5,GCGTCAAC,0.302
6,CACTAAGC,-0.0437
7,AGCTTGAT,0.0638
8,ATAGCAAG,0.0693
9,CACGCAAG,0.3
10,ACTGCACC,-0.158
11,GTTAGTCA,0.0321
12,CGGGGACA,-0.127
13,CGAGGAGA,-0.416
14,ACAGCGCG,-0.089
15,ATCTGTGC,0.018
16,AGGAAGTC,-0.234
17,AAGGCAAG,-0.0412
18,CGCGCCTC,-0.0779
19,AGTAATGA,0.247
20,GCCCGACC,-0.328
21,AGTAGATA,0.202
22,AAGTCAGT,-0.0135
23,AGTTGCCC,-0.107
24,GGGAAAAA,-0.0662
25,AGCCCACC,-0.268

row,Sequence,PBM E-score
1,ACATTGAT,0.0859
2,CTGATTCC,-0.152
3,GAGGGCGA,-0.265
4,CAGAGGTC,-0.285
5,CACGCCAC,0.0399
6,AAGCACGA,0.0735
7,AAAACAAA,0.158
8,CGTCACGC,0.433
9,CCCGATCC,-0.0903
10,AATAGTTG,0.144
11,GCATTTAC,0.162
12,ACACCAAA,0.211
13,GCTGGAAC,-0.188
14,GCACGTGC,0.296
15,CGGATTCC,-0.198
16,AGGTAACC,-0.0468
17,ATCTTTGA,0.109
18,GCCGACAA,-0.0507
19,AAGCCCGT,-0.203
20,CTTCAGCA,-0.0157
21,AAGACTAG,-0.193
22,GTCTTGAA,0.019
